Assay results: publication PMC4336329 (PLoS ONE, 2015)
In all, about 310,000 compounds went through this assay and about 2,200 (0.71%) showed an effect of 50% or more. The effect is printed as a negative number. Some of the results follow.

These compounds were tested against human ether-à-go-go-related gene (hERG) potassium channel (human, UniProt Q12809) (assay: primary screen, population patch clamp on CHO cells stably expressing hERG).
human ether-à-go-go-related gene (hERG) potassium channel, sequence (Q12809 whole entry, looked up): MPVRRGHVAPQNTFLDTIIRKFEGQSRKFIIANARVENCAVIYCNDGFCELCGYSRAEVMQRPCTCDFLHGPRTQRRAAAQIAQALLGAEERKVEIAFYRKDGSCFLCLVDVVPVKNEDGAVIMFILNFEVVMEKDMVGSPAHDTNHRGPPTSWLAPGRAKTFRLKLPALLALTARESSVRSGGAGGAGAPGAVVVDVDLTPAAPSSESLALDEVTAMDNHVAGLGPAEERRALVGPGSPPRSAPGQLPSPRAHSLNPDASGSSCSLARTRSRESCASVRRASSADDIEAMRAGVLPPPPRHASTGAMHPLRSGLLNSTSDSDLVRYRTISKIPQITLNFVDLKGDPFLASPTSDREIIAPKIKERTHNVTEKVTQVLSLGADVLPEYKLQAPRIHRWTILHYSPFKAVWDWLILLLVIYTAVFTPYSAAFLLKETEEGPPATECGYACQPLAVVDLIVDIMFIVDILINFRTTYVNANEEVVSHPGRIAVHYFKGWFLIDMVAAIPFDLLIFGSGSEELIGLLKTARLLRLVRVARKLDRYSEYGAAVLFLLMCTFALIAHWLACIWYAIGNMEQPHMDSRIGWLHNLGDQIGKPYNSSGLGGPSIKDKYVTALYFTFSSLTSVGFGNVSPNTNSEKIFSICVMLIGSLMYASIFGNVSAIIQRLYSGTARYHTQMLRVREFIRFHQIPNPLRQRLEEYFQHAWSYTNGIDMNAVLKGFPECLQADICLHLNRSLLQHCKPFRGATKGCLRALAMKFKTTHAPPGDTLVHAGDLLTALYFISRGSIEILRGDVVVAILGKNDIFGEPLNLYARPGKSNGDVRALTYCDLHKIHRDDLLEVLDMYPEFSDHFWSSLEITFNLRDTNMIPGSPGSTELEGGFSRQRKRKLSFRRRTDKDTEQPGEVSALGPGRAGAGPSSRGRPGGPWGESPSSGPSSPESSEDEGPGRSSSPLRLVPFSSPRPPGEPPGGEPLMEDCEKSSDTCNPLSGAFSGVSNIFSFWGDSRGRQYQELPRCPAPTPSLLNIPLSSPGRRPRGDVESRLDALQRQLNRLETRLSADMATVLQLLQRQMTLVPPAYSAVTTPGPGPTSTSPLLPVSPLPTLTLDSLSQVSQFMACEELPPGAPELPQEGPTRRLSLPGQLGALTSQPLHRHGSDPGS
O=C(NN1C(=O)C2CCCCC2C1=O)c1ccco1 (stereo not shown) was tested, and the “hERG current change (%, negative = inhibition) at 1uM” value was 8.35%. Cc1nn(C(=O)CNC(=O)c2ccccc2)c(C)c1C was tested, and the “hERG current change (%, negative = inhibition) at 1uM” value was 12.5%. With Cc1ccc(Nc2c([N+](=O)[O-])ccc3nonc23)cc1C the “hERG current change (%, negative = inhibition) at 1uM” value was 15.3%. O=C(C/C=N\OCc1ccc([N+](=O)[O-])cc1)Nc1ccccc1 was tested, and the “hERG current change (%, negative = inhibition) at 1uM” value was -10.3%. For Cc1cc(C)nc(SCC(=O)N2CCC(C(N)=O)CC2)n1, the “hERG current change (%, negative = inhibition) at 1uM” value was 10.4%. Cc1ccc(C2=NN(C(=O)CCC(=O)O)C(c3cccs3)C2)cc1 (stereo not shown) was tested, and the “hERG current change (%, negative = inhibition) at 1uM” value was 18.7%. With Cc1cccc(Nc2ncnc3onc(-c4cccc(Cl)c4)c23)c1 the “hERG current change (%, negative = inhibition) at 1uM” value was 5.3%. CCN(C(=O)CCNC(=O)Cn1cnc2ccccc2c1=O)c1cccc(Cl)c1 was tested, and the “hERG current change (%, negative = inhibition) at 1uM” value was 8.59%. CCOc1ccc(-n2ccc(=O)c(C(=O)Nc3ccc(S(=O)(=O)Nc4nccs4)cc3)n2)cc1 was tested, and the “hERG current change (%, negative = inhibition) at 1uM” value was 27%. With NS(=O)(=O)c1ccc(NC(=O)CN2C(=O)c3ccccc3C2=O)cc1 the “hERG current change (%, negative = inhibition) at 1uM” value was 0.122%. C=CCNC(=O)C1(c2ccccc2)CC1(Cl)Cl (stereo not shown) was tested, and the “hERG current change (%, negative = inhibition) at 1uM” value was 9.14%. For O=C(Nc1nc(-c2cccs2)cs1)c1ccc(Cl)s1, the “hERG current change (%, negative = inhibition) at 1uM” value was -6.43%. In the case of COc1ccc(N(CC(=O)NCCSCc2ccccc2C)S(=O)(=O)c2ccccc2)cc1, the “hERG current change (%, negative = inhibition) at 1uM” value is reported as 8.83%. With CCOC(=O)c1cnn(-c2cc(C(C)(C)C)nc3c(-c4ccccc4)c(C)nn23)c1N the “hERG current change (%, negative = inhibition) at 1uM” value was 1.04%. With COc1ccc(NC(=O)CN2C(=O)C(C)SC(C)C2=O)cc1 (stereo not shown) the “hERG current change (%, negative = inhibition) at 1uM” value was 6.14%. CCCCn1c(SCC(=O)Nc2nccs2)nc2ccccc2c1=O was tested, and the “hERG current change (%, negative = inhibition) at 1uM” value was 15.9%. In the case of COc1ccc(N2CCN(C(=O)Cn3c(=O)c4cccn4c4cccnc43)CC2)cc1, the “hERG current change (%, negative = inhibition) at 1uM” value is reported as -3.7%. With COc1ccc2cc(C(=O)C3CCCN(C(=O)c4cnccn4)C3)ccc2c1 (stereo not shown) the “hERG current change (%, negative = inhibition) at 1uM” value was -0.88%. CCN(CC)S(=O)(=O)c1cc(NC(=O)COc2ccc(C#N)cc2OC)ccc1C was tested, and the “hERG current change (%, negative = inhibition) at 1uM” value was 5.63%. COc1ccc(C2=NN(CN3C(=O)C(=O)c4ccccc43)C(c3ccc(C)cc3)C2)cc1 (stereo not shown) was tested, and the “hERG current change (%, negative = inhibition) at 1uM” value was 9.53%. For Cc1ccc(Cn2c(NS(=O)(=O)c3ccccc3)nc3ccccc32)cc1, the “hERG current change (%, negative = inhibition) at 1uM” value was 16.3%. With Cc1cc(C)c(C(=O)Nc2ccc(C)c(C)c2)c(CC(C)(C)C(=O)O)c1 the “hERG current change (%, negative = inhibition) at 1uM” value was 15.7%. CCOc1ccc(-c2nnc(NC(=O)CCCOc3cccc(C)c3)o2)cc1 was tested, and the “hERG current change (%, negative = inhibition) at 1uM” value was 12.5%. In the case of NC(=S)N/N=C/c1coc2c(ccc3ccccc32)c1=O, the “hERG current change (%, negative = inhibition) at 1uM” value is reported as 13.4%. In the case of COc1ccc(CC(=O)NC(=S)Nc2ccc(S(N)(=O)=O)cc2)cc1, the “hERG current change (%, negative = inhibition) at 1uM” value is reported as -9.37%. For CC(=O)Nc1cccc(NC(=O)CSc2nc(C3CC3)nc3ccccc23)c1, the “hERG current change (%, negative = inhibition) at 1uM” value was 8.11%. In the case of O=C(c1cc2c(=O)n3ccccc3nc2s1)N1CCN(Cc2ccc3c(c2)OCO3)CC1, the “hERG current change (%, negative = inhibition) at 1uM” value is reported as -2.97%. For CCOC(=O)c1ccc(N2C(=O)Cc3ccccc3C2=O)cc1, the “hERG current change (%, negative = inhibition) at 1uM” value was 10.1%. For COc1ccc(-n2c(SCC(=O)Nc3ccc(Br)cc3)nc(O)cc2=O)cc1, the “hERG current change (%, negative = inhibition) at 1uM” value was 13.2%. For O=C(N/N=C/c1ccccn1)C(=O)N1CCCCCC1, the “hERG current change (%, negative = inhibition) at 1uM” value was 15.1%. For CC(C)CN1CCN(Cc2cc3ccccc3[nH]2)CC1CCO (stereo not shown), the “hERG current change (%, negative = inhibition) at 1uM” value was 8.97%. For O=c1c(-c2ccccc2)[n+]([O-])c2ccccc2n1O, the “hERG current change (%, negative = inhibition) at 1uM” value was -2.89%. In the case of COc1ccc(CCn2c(C)cc(C(=O)CSc3nnnn3-c3ccccc3)c2C)cc1, the “hERG current change (%, negative = inhibition) at 1uM” value is reported as 16.5%. O=C(N/N=C/c1cc(Br)c(O)c([N+](=O)[O-])c1)C(O)(c1ccccc1)c1ccccc1 was tested, and the “hERG current change (%, negative = inhibition) at 1uM” value was 6.95%. COC(=O)C1C(c2ccccc2)C(C(=O)N2CCN(C)CC2)C1c1ccccc1 (stereo not shown) was tested, and the “hERG current change (%, negative = inhibition) at 1uM” value was 0.517%. CC1CCCCN1CC(=O)Nc1cc(S(=O)(=O)N2CCOCC2)ccc1N1CCCC1 (stereo not shown) was tested, and the “hERG current change (%, negative = inhibition) at 1uM” value was 2.79%. For CCOC(=O)c1oc2c(CN3CCN(C)CC3)c(O)ccc2c(=O)c1-c1ccc(Br)cc1, the “hERG current change (%, negative = inhibition) at 1uM” value was 0.354%. With O=C(O)CSc1ncnc2c1oc1ccccc12 the “hERG current change (%, negative = inhibition) at 1uM” value was 12%. With COC(=O)c1ccc(CSc2ccc3nnc(-c4ccc(OC)cc4)n3n2)o1 the “hERG current change (%, negative = inhibition) at 1uM” value was 4.21%. In the case of Cc1ccc(C(=O)NNC(=O)CCCCC(=O)NNC(=O)c2ccc(C)cc2)cc1, the “hERG current change (%, negative = inhibition) at 1uM” value is reported as 9.03%. O=C(COC(=O)C12CC3CC(CC(O)(C3)C1)C2)Nc1ccc(Cl)cc1F was tested, and the “hERG current change (%, negative = inhibition) at 1uM” value was -1.56%. With COc1ccccc1CC(NC(C)=O)C(=O)NC1CCN(C(=O)c2ccc([N+](=O)[O-])cc2)CC1 (stereo not shown) the “hERG current change (%, negative = inhibition) at 1uM” value was 1.94%. With CCOC(=O)c1ccc(N2C(=O)CC(N3CCC(C#N)(c4ccccc4)CC3)C2=O)cc1 (stereo not shown) the “hERG current change (%, negative = inhibition) at 1uM” value was 2.7%.
